Self-cleavage data for 84 variants are collected here from the RNAGym collection of RNA variant scans (doi:10.7554/elife.90254).

Read counts are not given, so values of variants with three or more changes are uncertain.

The labels stand for the following.
B1: OR4K15 (parent)
chain: GUUAACGGUCAUAGGCCAUGGAAACUAGGAGCACCAUUUCGCUGCCAGUGAAGAAAUGAACAAAGAAAAUCUGGGCCAGGCAGGCAUCAAAAGAAAUAGUCUUGCGCUCAACCAGAAAGUCUGUAAUCAUUUUAAGGGUA

In the series the parent is B1. Briefly: self-cleavage, relative activity (ratio to wild type); higher = more cleavage; in vitro, sequencing; the parent is a self-cleaving ribozyme.
For the variant U2A A94G U139C, the self-cleavage worked out at 0.84.

As for U2A U9C A24G U37C C40U A52U U139C, the self-cleavage was 0.65.

Regarding U2C A13G A52G A63G, the self-cleavage is 1.51.

U2C U39C U49A A60G A62U A69G A110C: the self-cleavage came to 0.23.

Turning to U2C A47G A56G A118G A126G U127C A129G, the self-cleavage is 0.04.

As for U2C U12A A22G U39A A59G A110G, the self-cleavage came to 0.12.

As for U2A A126G U139C, the self-cleavage turned out to be 1.14.

On to U2C A18U U103C U108A, for which the self-cleavage was determined as 0.04.

In the case of U2A A56U A86G U127G A140G, the self-cleavage stood at 0.28.

U2A U37C U43C A95G: the self-cleavage was 2.05.

As for U2C A36U A51G U70C, the self-cleavage was 0.3.

As to U2C A69G A94G, the self-cleavage was 0.27.

Consider G1A U57A A86G A117G, for which the self-cleavage turned out to be 1.18.

For U2A U38C A94G, the self-cleavage came out at 0.64.

With U2C A59U U122A, the self-cleavage is 1.26.

Regarding U2C A59U U122C, the self-cleavage stood at 1.24.

Take U2C A55G U120C: the self-cleavage was determined as 2.05.

As to U2C A66G U70C A92G, the self-cleavage is 0.67.

As for U2A A27G U39C A59G A64G, the self-cleavage is 0.54.

For U2A G7U A11G A62G A69G, the self-cleavage stood at 1.07.

U2C A94G A126G: the self-cleavage came to 1.62.

Turning to U2C A11U U131C, the self-cleavage was found to be 0.85.

Regarding U2C A90G A114U, the self-cleavage amounted to 0.04.

For the variant U2C A24U A52G A59G A98G, the self-cleavage came out at 0.83.

Consider U2C A5U U39A A66G, for which the self-cleavage came to 1.46.

U2C A11U A30G A56G A82U A95G: the self-cleavage stood at 0.24.

Take U2C A55G A69G: the self-cleavage amounted to 1.51.

Consider U2C U12C C32U A55G A66G G79U U87C A134G, for which the self-cleavage is 0.08.

On to U2C A18U U38C U72A, for which the self-cleavage stood at 0.77.

Consider U2C A60U U127A, for which the self-cleavage was 1.86.

Take U2A A27G A67G C81U U133C: the self-cleavage was determined as 1.06.

As for U2C A59G A78G, the self-cleavage amounted to 0.23.

For U2C U38G A47G, the self-cleavage came to 0.59.

U2C A24G A36U: the self-cleavage worked out at 0.64.

Consider U2A G20A A23G A24G, for which the self-cleavage was determined as 0.09.

Turning to U2C A78G A86G U120G, the self-cleavage is 0.15.

Consider G1U U2A A59G U72A U127A, for which the self-cleavage amounted to 0.47.

Regarding U2C A11C U19C A22C A59U, the self-cleavage is 1.18.

Turning to U2C U43A A66G U108C, the self-cleavage was determined as 0.01.

As to U2G U19A U49A U108C, the self-cleavage was 0.04.

G1U G29U U102C: the self-cleavage was determined as 1.86.

As for U2C A62C U72C A82U U102C, the self-cleavage was determined as 0.4.

Consider U2C G31U A78G A90U U120A, for which the self-cleavage amounted to 0.45.

As for U2A U39C A66U, the self-cleavage was found to be 1.04.

For U2C A11G C42U G79A C101A, the self-cleavage was found to be 0.07.

Turning to G1A G28A A54G A62U A111G, the self-cleavage amounted to 0.05.

Consider G1C U37C A55G, for which the self-cleavage was 0.52.

As for U2A A52G A86G, the self-cleavage amounted to 0.93.

Consider U2C A95G U103C, for which the self-cleavage was determined as 0.51.

As for U2A U87C U102C A134U, the self-cleavage came out at 1.7.

For U2G A4G U39A, the self-cleavage is 0.46.

With U2A A24G A62G U124C, the self-cleavage was 0.62.

U2C A67G U127A: the self-cleavage came out at 2.97.

As for U2C G50A A66C, the self-cleavage came out at 1.58.

With U2C A67G A114U A116G U130C, the self-cleavage amounted to 0.01.

Turning to U2C U87C A129G, the self-cleavage came to 1.36.

On to U2C A78U A91U A96G U103A, for which the self-cleavage is 0.11.

On to U2A A24G U26C, for which the self-cleavage came out at 0.74.

For the variant U2C A69U G137U, the self-cleavage turned out to be 1.7.

In the case of U2A G20U A56G A110C, the self-cleavage amounted to 0.32.

As for U2C U38C A51G U130C, the self-cleavage was 1.47.

In the case of U2C A24U A52G A60G U87C, the self-cleavage amounted to 1.51.

For the variant U2C C42G A60G U87C, the self-cleavage came to 1.

U2C A33G A36G A54G A55G A60G: the self-cleavage came out at 0.82.

Regarding U2C U38A U49C A56G, the self-cleavage was 0.87.

As to U2A A24G A60G, the self-cleavage was 1.62.

Turning to U2C A52G U70C U108C, the self-cleavage was determined as 0.02.

As to U2A A13U C112U U132C, the self-cleavage came to 0.02.

U2C A4G U100C: the self-cleavage stood at 1.7.

U2C A30G A36C A129G A135G: the self-cleavage amounted to 1.14.

Consider U2A U37C A94U A111G, for which the self-cleavage is 0.12.

As for U2C A33G A55U A110G, the self-cleavage stood at 0.1.

In the case of U2C A23G A63G A86G G123A U132C, the self-cleavage was 1.4.

Turning to U2C A78G U132A, the self-cleavage was found to be 0.45.

With U2A U49C G79A, the self-cleavage came out at 0.24.

Take G1A A22G A59U A95G U108A U120A: the self-cleavage came out at 0.03.

For U2C A11U A63G A64U A96G, the self-cleavage was found to be 1.05.

G1A A86U A111G A116G U122C A134G A140U: the self-cleavage worked out at 0.01.

As for U2A A68G G73U, the self-cleavage is 0.15.

With U2A A64G G115A, the self-cleavage was determined as 0.4.

For U2A U122C U131C, the self-cleavage stood at 1.22.

Consider U2A A22G U87A, for which the self-cleavage worked out at 0.68.

Take U2A U43C A56G: the self-cleavage turned out to be 0.84.

With U2C A66G A69G G79U A92U, the self-cleavage worked out at 0.1.
